In the supplement of paper PMC3334620:
In all, about 33,000 sequences were measured (“E-score (-0.5 to 0.5)”: median about -0.012, highest 2% from about 0.29 on). The list shows a part of the results.

Each sequence was assayed against T1, Ybr033w (UniProt P38073) (assay: PBM E-score (8-mer binding enrichment) (E-score (-0.5 to 0.5)); higher = stronger / more preferred TF binding; most listed sequences are background and not binding sites). Details: protein concentration: 200 nM; construct: GST-full length.
T1 sequence: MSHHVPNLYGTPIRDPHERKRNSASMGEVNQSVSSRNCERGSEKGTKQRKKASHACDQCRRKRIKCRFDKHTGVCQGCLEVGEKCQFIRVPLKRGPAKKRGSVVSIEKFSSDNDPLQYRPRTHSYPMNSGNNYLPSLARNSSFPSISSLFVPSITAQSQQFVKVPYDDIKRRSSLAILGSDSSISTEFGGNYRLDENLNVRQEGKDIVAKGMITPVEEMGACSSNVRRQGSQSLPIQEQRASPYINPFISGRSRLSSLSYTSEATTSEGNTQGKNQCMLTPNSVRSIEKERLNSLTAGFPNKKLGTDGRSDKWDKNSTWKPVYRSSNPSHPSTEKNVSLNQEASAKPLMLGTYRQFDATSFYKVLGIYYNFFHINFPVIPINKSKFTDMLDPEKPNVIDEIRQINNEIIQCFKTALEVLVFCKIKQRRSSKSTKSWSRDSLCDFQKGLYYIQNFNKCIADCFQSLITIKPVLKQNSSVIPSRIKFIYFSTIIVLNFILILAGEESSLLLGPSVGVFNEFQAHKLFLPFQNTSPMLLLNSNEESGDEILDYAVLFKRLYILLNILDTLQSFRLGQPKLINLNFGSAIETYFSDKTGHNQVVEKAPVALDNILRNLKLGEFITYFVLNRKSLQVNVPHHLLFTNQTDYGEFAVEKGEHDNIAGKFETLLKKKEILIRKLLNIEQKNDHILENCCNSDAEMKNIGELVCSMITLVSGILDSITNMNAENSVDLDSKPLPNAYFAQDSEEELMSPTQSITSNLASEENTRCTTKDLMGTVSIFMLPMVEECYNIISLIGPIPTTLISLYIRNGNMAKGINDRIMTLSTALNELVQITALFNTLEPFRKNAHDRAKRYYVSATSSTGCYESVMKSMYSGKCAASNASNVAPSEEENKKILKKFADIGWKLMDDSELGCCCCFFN
Method in brief: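 Detection of bound protein used fluorescent anti-GST, with scans normalised by masliner. The proteins were GST-tagged yeast transcription factors applied at about 100-200 nM to universal all-10-mer Agilent arrays made double-stranded by primer extension. Each ungapped eight-base word, pooled with its reverse complement, was scored with an E-score from the Universal PBM Analysis Suite.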

Sequence	PBM E-score
ACCGCAAC	0.0881
ATCCCCCC	-0.373
CTCAGGCC	-0.28
CGTGCCTA	-0.107
ACTCCGCT	-0.0751
AGTACTCG	0.198
CTTTTCCA	-0.0875
CGCCAGGC	-0.239
AAACGGCT	-0.0555
AAGTGAAG	0.0414
ATGGAGTG	-0.184
ACTATCAT	0.242
AAAACACC	0.0357
ACGTAGCG	-0.171
CTTCAGCC	-0.13
ACGACAAA	0.283
AGCAGGCA	-0.12
TACCACAA	0.195
TCCTAACA	0.0774
AGTCGATC	-0.166
AATTGGTA	0.205
GCTGTCTA	-0.0891
CGATTCAG	0.0559
CCATTAGC	-0.0535
AAGAGTCT	-0.164

Sequence	PBM E-score
CAAGGTCG	-0.0398
CGGGCCTC	-0.172
CACTGAAG	0.0968
CGAGTTAA	0.21
CAACGGAC	-0.123
ATGGGCCC	-0.38
AGGGCGTC	-0.0512
CTTCGTGC	-0.00189
TCCCGACA	-0.0366
GTCCTCTA	-0.103
AAAGAATA	0.256
AATAAGAA	0.193
AGACTTCA	-0.0839
ACGCCAGC	-0.189
GGCGACTA	-0.138
CTCAATCC	0.105
TAGCCTCA	0.0172
CTCCCCTA	-0.189
ATTTTACA	0.0461
CGCCGCAG	-0.235
CGCTTGCA	0.152
AGGCTCGC	-0.232
AACGTAAT	0.21
CGAAGGAA	-0.14
ATAAGGGA	-0.0166

Sequence	PBM E-score
ATCGGAGC	-0.107
ATGTTAAT	0.152
GAGGGACA	-0.261
CCATTGAC	0.0236
AGATTAAA	0.295
CCAGCCGC	-0.116
ATTCTAAA	0.227
AGAGTACG	-0.0594
TCCGTTCA	-0.00203
GTAGTATA	0.168
AAATGGCA	0.101
AAGGCTTA	-0.0575
CATGCTCG	-0.13
ATGGGACG	-0.226
CAAAGGGC	-0.305
CTTTTAAA	0.026
CCGCAGCA	-0.0607
ATTACCTG	0.0402
AAGGCCGT	-0.0585
ACCGCATG	0.0199
AGGCGCCG	-0.203
AGTGTTAC	0.129
ACGCTTGA	0.0966
CTAGAGTA	0.118
AATTCGTC	0.211

Sequence	PBM E-score
CTCCCTCA	-0.237
AACCCTTC	-0.0208
ATCAATAG	0.178
CCACGTTA	0.0945
ATAGGACA	-0.0693
AAATGGGG	-0.265
ACTATCCA	-0.0306
CGCGCAAC	-0.0268
ATGGACCA	0.00537
GTGTGTTA	0.292
ATCCGTGC	0.0405
CGGCGGAA	0.0216
AATCTAAT	0.168
CATAGGAA	0.0524
TATTTGGA	0.082
GGCTATGA	-0.105
GAGGACCA	-0.0343
CCACGAGA	-0.0169
AGTCCTCC	-0.237
CCCAGACA	-0.168
GCACTGAC	-0.165
CCCGATGC	-0.222
GCCCTGGA	-0.191
ACACAAAC	0.0791
ACACCAGT	-0.31

Sequence	PBM E-score
AGAACCCA	-0.0512
CTTGAAGC	-0.11
GAACTCAC	-0.0937
ATAGGCGC	-0.145
ATTCCAGC	0.0338
ACCCCTAG	-0.136
ACGTATAA	0.201
CCCCGTCA	-0.167
GAATTTGC	0.203
GGTGAGAC	0.0001
CGGATGCA	-0.199
AGTCTTCC	0.0281
AGGAAAGC	-0.118
ACTAAAGT	0.141
CGACAATC	-0.00125
AGCACCAC	-0.129
CATAAAGA	0.219
CTACGAAA	0.0387
AATACCGT	0.221
CTCTGACA	0.0954
TCAGTACA	0.0397
GCCGTGCC	-0.179
AACTGCAA	0.136
ATGTTCCC	0.199
CACCGTGC	-0.202

Sequence	PBM E-score
CCCGGACC	-0.251
CCGCGGAA	-0.0214
CGAAGGGA	0.0713
CGGTCTCC	-0.218
ACGATACG	0.0322
GGCAACGA	-0.0716
GAATCGGA	0.0289
CTAGTCCA	-0.0773
CCCGACCG	-0.144
AGTTTGAT	0.195
CAAAGTGA	0.137
CAACCCCA	-0.106
CAGACACC	-0.0856
AGTGATCA	0.01
AGACGTAT	0.0171
CCAAACCA	-0.107
GGCGCACC	-0.261
AACTGCAG	-0.0397
GTTATTAA	0.229
ATGTCAAA	0.217
AAACACTT	0.165
GACACTTA	-0.0142
GCTGCAGA	-0.101
AACGCGAG	0.0539
TAGGATCA	0.195

Sequence	PBM E-score
ACACGCAA	0.142
GCAACCCA	-0.107
GCCCCGGA	0.0163
ACTGACCC	-0.198
CGGGTCTA	-0.11
AGTAGTGG	0.0743
AATTAGAA	0.147
ACATGTCA	-0.0171
AGGCGGGC	-0.34
ACCCGTAC	0.00422
ATAAAGGC	0.0972
AGAACTCA	0.111
CACCTCGA	0.155
ACTCAAAA	0.219
AGTCGTTC	-0.206
AGATGGAT	-0.0291
ATTAGAGG	-0.0176
CCTGCGCC	-0.237
ATTCTTAC	0.251
CCCAGGTC	-0.314
TCACTGAA	0.0939
AAAACTCG	0.221
CATCTCTC	-0.0755
CCCCAGAC	-0.304
ACGCAACG	0.0621

Sequence	PBM E-score
ATATAGAC	0.142
CACCGTAA	0.166
AGAACGGA	-0.0246
AGTCCGAC	-0.113
ATGGAGAA	0.157
GGAAATAC	0.183
AGCGTTAC	-0.0321
CTGTCAGA	0.00116
CCTCGACA	-0.206
CTACAGTA	0.0929
ATCCGTAG	-0.00059
TAAGATGA	-0.0515
CTGCAATC	0.107
GACAATAC	0.199
CTAATCGC	-0.0175
CGAGAAAA	0.0269
CTCAGACC	-0.029
AGTAATAT	0.336
CAGCCACC	-0.197
GTGAGGTA	0.0102
CAGGGCTC	-0.284
CACAAAAG	0.149
AAGACGCT	-0.0835
GCGAGGCA	-0.216
TATGAACA	0.17

Sequence	PBM E-score
AAATGGAA	0.177
ATTTAATA	0.325
AAGAAGCA	0.103
GCGCTACC	-0.0863
TTATCAAA	0.275
CGTAGCGA	-0.0425
ACTCGAAT	-0.0149
CAGCTTCA	-0.0893
TCAGCGAA	0.0175
CACACGAG	-0.277
ATTTTGTA	0.246
AAACACGA	0.217
ATTCTCCG	0.305
AGATTATA	0.246
CCGCAAGG	-0.00021
ATTGCGGA	0.127
GAGTCCAC	-0.192
CTAACGCA	0.0758
AAAACTGA	0.0327
